In patent publication US20260115255A1 (CYTUNE PHARMA, published 2026):

T1: IL-2/IL-15Rβγ on kit225 cells (UniProt P14784 27-551; P31785 23-369, limits assumed)
T1 sequence (looked up) 1: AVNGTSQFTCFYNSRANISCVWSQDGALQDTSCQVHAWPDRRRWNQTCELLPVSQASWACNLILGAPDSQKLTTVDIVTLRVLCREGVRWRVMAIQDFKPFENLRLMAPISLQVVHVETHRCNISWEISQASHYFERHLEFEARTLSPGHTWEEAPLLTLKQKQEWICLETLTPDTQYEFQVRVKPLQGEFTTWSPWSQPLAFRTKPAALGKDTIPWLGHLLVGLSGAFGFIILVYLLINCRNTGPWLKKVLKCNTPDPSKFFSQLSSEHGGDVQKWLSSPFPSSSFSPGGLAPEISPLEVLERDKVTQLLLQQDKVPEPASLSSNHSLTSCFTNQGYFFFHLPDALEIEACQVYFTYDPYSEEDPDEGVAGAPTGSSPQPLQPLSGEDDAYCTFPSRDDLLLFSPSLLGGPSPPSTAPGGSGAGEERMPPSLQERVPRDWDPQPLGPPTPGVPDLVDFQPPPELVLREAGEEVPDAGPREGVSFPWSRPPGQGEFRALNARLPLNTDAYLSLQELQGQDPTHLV
T1 sequence (looked up) 2: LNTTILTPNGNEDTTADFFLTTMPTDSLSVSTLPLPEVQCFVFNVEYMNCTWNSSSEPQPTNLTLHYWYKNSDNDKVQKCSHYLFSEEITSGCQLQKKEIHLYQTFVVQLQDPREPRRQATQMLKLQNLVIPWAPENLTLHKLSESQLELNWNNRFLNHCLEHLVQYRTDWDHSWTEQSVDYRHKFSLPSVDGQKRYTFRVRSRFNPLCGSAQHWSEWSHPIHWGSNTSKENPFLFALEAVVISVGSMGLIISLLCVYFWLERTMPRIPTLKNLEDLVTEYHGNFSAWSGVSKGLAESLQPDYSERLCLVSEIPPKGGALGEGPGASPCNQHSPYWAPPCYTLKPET


Legend:
FcγRIIIa F158 = target: T2, FcγRIIIa F158 (human, UniProt P08637 part only); assay: SPR; ratio of affinity (1/Kd) for FcγRIIIa F158 to affinity for FcγRIIb
T2 construct: Captured on the chip through an anti-His tag antibody; construct not described; also called hFcγRIIIaF158; CD16a F158
Procedure: (§1) SPR experiments were performed on a Biacore 8K (Cytiva, Chicago, IL, USA), using CM5 sensor chips (Cytiva) with an immobilization using THE His tag antibodies (Genscript). FcγRIIIa V158, FcγRIIIa F158 or FcγRIIb protein were used for capture with a contact time of 30 sec at a flow rate of […] in a 1×HBS-EP+ running buffer. Association/dissociation rates were measured for each tested immunocytokine at a flow rate of 30 μl/min with concentration serial dilution in a suitable range with an association time/dissociation time of 300 s/300 s except for constructs with DLE and DE with and without afucosylation, where association/dissociation time of 120 s/1200 s was applied.

FcγRIIIa V158 = target: T3, FcγRIIIa V158 (human, UniProt P08637 part only); assay: SPR; ratio of affinity (1/Kd) for FcγRIIIa V158 to affinity for FcγRIIb
T3 construct: Captured on the chip through an anti-His tag antibody, so it carries a His tag; construct not described; also called hFcγRIIIaV158; FcγIIIa V158
Procedure: as §1

[1] = target: T1, IL-2/IL-15Rβγ on kit225 cells; assay: cell-based or functional assay
[2] = target: T1, IL-2/IL-15Rβγ on kit225 cells; assay: cell-based or functional assay; remark: listed apart in the source
[3] = target: T1, IL-2/IL-15Rβγ on kit225 cells; assay: cell-based or functional assay; remark: listed apart in the source
[4] = target: PD-1 on PD-1 Effector Cells (UniProt Q15116 25-288, limits assumed); assay: cell-based or functional assay
PD-1 [5] = target: T4, PD-1 (UniProt Q15116 part only, limits assumed); assay: 4 °C binding, 4 h; method not described, target by context
PD-1 [6] = target: T4, PD-1; assay: 37 °C binding, 1 h; method not described, target by context
PD-1 [7] = target: T4, PD-1; assay: 37 °C binding, 4 h; method not described, target by context

T4 sequence (Q15116 25-167 limits assumed): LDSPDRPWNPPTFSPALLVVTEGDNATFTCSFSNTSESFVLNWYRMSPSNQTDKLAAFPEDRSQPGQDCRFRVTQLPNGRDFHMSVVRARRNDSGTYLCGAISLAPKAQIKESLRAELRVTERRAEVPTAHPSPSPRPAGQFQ
Chain of FcγRIIIa F158 (P08637 17-208 limits assumed): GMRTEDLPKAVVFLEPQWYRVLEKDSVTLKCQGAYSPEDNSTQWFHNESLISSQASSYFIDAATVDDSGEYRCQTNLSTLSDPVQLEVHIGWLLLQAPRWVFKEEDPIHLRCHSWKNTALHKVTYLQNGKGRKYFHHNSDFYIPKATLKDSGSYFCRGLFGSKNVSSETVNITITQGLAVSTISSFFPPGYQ
Chain of FcγRIIIa V158 (P08637 17-208 F176V): as the sequence (P08637 17-208 limits assumed) above, with F160V counted along it

A/I (F158) (FcγRIIIa F158) | A/I (V158) (FcγRIIIa V158) | EC50 on kit225 cells [1] [nM] | EC50 kit225 cells [2] [nM] | EC50 kit225 cells [3] [nM] | EC50, PD-1/PD-L1 Blockade Bioassay [4] [nM] | Kd (PD-1 [5]) [nM] | Kd (PD-1 [6]) [nM] | Kd (PD-1 [7]) [nM] | Binder
54.7 | 151 | – | – | – | – | – | – | – | hCl1a IE-RLI DANA (other, See note of m4) heavy 1: QVQLVQSGAEVKKPGASVKVSCKASGYTFTDYAMHWVRQAPGQRLEWMGWINTYTGKPTYAQKFQGRVTITRDTSASTAYMELSSLRSEDTAVYYCARAVFYGYTMDAWGQGTLVTVSSASTKGPSVFPLAPSSKSTSGGTAALGCLVKDYFPEPVTVSWNSGALTSGVHTFPAVLQSSGLYSLSSVVTVPSSSLGTQTYICNVNHKPSNTKVDKKVEPKSCDKTHTCPPCPAPELLGGPSVFLFPPKPKDTLMISRTPEVTCVVIDVSHEDPEVKFNWYVDGVEVHNAKTKPREEQYNSTYRVVSVLTVLHQDWLNGKEYKCKVSNKALPAPEEKTISKAKGQPREPQVYTLPPSRDELTKNQVSLWCLVKGFYPSDIAVEWESNGQPENNYKTTPPVLDSDGSFFLYSKLTVDKSRWQQGNVFSCSVMHEALHNHYTQKSLSLSPGITCPPPMSVEHADIWVKSYSLYSRERYICNSGFKRKAGTSSLTECVLNKATNVAHWTTPSLKCIRDPALVHQRPAPPSGGSGGGGSGGGSGGGGSGGNWVNVISDLKKIEDLIQSMHIDATLYTESDVHPSCKVTAMKCFLLELQVISLESGDASIHATVEALIILANNSLSSNAQVTESGCKECEELEEKNIKEFLQSFVHIVQMFINTS heavy 2: QVQLVQSGAEVKKPGASVKVSCKASGYTFTDYAMHWVRQAPGQRLEWMGWINTYTGKPTYAQKFQGRVTITRDTSASTAYMELSSLRSEDTAVYYCARAVFYGYTMDAWGQGTLVTVSSASTKGPSVFPLAPSSKSTSGGTAALGCLVKDYFPEPVTVSWNSGALTSGVHTFPAVLQSSGLYSLSSVVTVPSSSLGTQTYICNVNHKPSNTKVDKKV[… human IgG1 Fc with V264I I332E T366S L368A Y407V (EU numbers) …] light: DIQMTQSPSSLSASVGDRVTITCRASEDIYSNLAWYQQKPGKAPKLLIFSVKRLQDGVPSRFSGSGSGTDFTLTISSLQPEDFATYYCLQGSNFPLTFGQGTKVEIKRTVAAPSVFIFPPSDEQLKSGTASVVCLLNNFYPREAKVQWKVDNALQSGNSQESVTEQDSKDSTYSLSSTLTLSKADYEKHKVYACEVTHQGLSSPVTKSFNRGEC
20.9 | 60.9 | – | – | – | – | – | – | – | hCl1a TL-RLI DANA (other, See note of m4) heavy 1: QVQLVQSGAEVKKPGASVKVSCKASGYTFTDYAMHWVRQAPGQRLEWMGWINTYTGKPTYAQKFQGRVTITRDTSASTAYMELSSLRSEDTAVYYCARAVFYGYTMDAWGQGTLVTVSSASTKGPSVFPLAPSSKSTSGGTAALGCLVKDYFPEPVTVSWNSGALTSGVHTFPAVLQSSGLYSLSSVVTVPSSSLGTQTYICNVNHKPSNTKVDKKVEPKSCDKTHTCPPCPAPELLGGPSVFLFPPKPKDTLMISRTPEVTCVVVDVSHEDPEVKFNWYVDGVEVHNAKTKPREEQYNSTYRVVSVLTVLHQDWLNGKEYKCKVSNKALPAPIEKTISKAKGQPREPQVYTLPPSRDELTKNQVSLWCLVKGFYPSDIAVEWESNGQPENNYTTTPLVLDSDGSFFLYSKLTVDKSRWQQGNVFSCSVMHEALHNHYTQKSLSLSPGITCPPPMSVEHADIWVKSYSLYSRERYICNSGFKRKAGTSSLTECVLNKATNVAHWTTPSLKCIRDPALVHQRPAPPSGGSGGGGSGGGSGGGGSGGNWVNVISDLKKIEDLIQSMHIDATLYTESDVHPSCKVTAMKCFLLELQVISLESGDASIHATVEALIILANNSLSSNAQVTESGCKECEELEEKNIKEFLQSFVHIVQMFINTS heavy 2: QVQLVQSGAEVKKPGASVKVSCKASGYTFTDYAMHWVRQAPGQRLEWMGWINTYTGKPTYAQKFQGRVTITRDTSASTAYMELSSLRSEDTAVYYCARAVFYGYTMDAWGQGTLVTVSSASTKGPSVFPLAPSSKSTSGGTAALGCLVKDYFPEPVTVSWNSGALTSGVHTFPAVLQSSGLYSLSSVVTVPSSSLGTQTYICNVNHKPSNTKVDKKV[… human IgG1 Fc with T366S L368A K392T P396L Y407V (EU numbers) …] light: DIQMTQSPSSLSASVGDRVTITCRASEDIYSNLAWYQQKPGKAPKLLIFSVKRLQDGVPSRFSGSGSGTDFTLTISSLQPEDFATYYCLQGSNFPLTFGQGTKVEIKRTVAAPSVFIFPPSDEQLKSGTASVVCLLNNFYPREAKVQWKVDNALQSGNSQESVTEQDSKDSTYSLSSTLTLSKADYEKHKVYACEVTHQGLSSPVTKSFNRGEC
– | – | 15.2 | 10 | 17.9 | 2.77 | 0.26 | 0.23 | 0.21 | SOT201 (other) chain 1: QVQLVQSGVEVKKPGASVKVSCKASGYTFTNYYMYWVRQAPGQGLEWMGGINPSNGGTNFNEKFKNRVTLTTDSSTTTAYMELKSLQFDDTAVYYCARRDYRFDMGFDYWGQGTTVTVSSASTKGPSVFPLAPCSRSTSESTAALGCLVKDYFPEPVTVSWNSGALTSGVHTFPAVLQSSGLYSLSSVVTVPSSSLGTKTYTCNVDHKPSNTKVDKRV[… human IgG4 Fc with S228P L235E T366W (EU numbers) …]ITCPPPMSVEHADIWVKSYSLYSRERYICNSGFKRKAGTSSLTECVLNKATNVAHWTTPSLKCIRDPALVHQRPAPPSGGSGGGGSGGGSGGGGSGGNWVNVISDLKKIEDLIQSMHIDATLYTESDVHPSCKVTAMKCFLLELQVISLESGDASIHDTVEALIILANNSLSSNAQVTESGCKECEELEEKNIKEFLQSFVHIVQMFINTS chain 2: QVQLVQSGVEVKKPGASVKVSCKASGYTFTNYYMYWVRQAPGQGLEWMGGINPSNGGTNFNEKFKNRVTLTTDSSTTTAYMELKSLQFDDTAVYYCARRDYRFDMGFDYWGQGTTVTVSSASTKGPSVFPLAPCSRSTSESTAALGCLVKDYFPEPVTVSWNSGALTSGVHTFPAVLQSSGLYSLSSVVTVPSSSLGTKTYTCNVDHKPSNTKVDKRVESKYGPPCPPCPAPEFEGGPSVFLFPPKPKDTLMISRTPEVTCVVVDVSQEDPEVQFNWYVDGVEVHNAKTKPREEQFNSTYRVVSVLTVLHQDWLNGKEYKCKVSNKGLPSSIEKTISKAKGQPREPQVYTLPPSQEEMTKNQVSLSCAVKGFYPSDIAVEWESNGQPENNYKTTPPVLDSDGSFFLVSRLTVDKSRWQEGNVFSCSVMHEALHNHYTQKSLSLSLG chain 3: EIVLTQSPATLSLSPGERATLSCRASKGVSTSGYSYLHWYQQKPGQAPRLLIYLASYLESGVPARFSGSGSGTDFTLTISSLEPEDFAVYYCQHSRDLPLTFGGGTKVEIKRTVAAPSVFIFPPSDEQLKSGTASVVCLLNNFYPREAKVQWKVDNALQSGNSQESVTEQDSKDSTYSLSSTLTLSKADYEKHKVYACEVTHQGLSSPVTKSFNRGEC

Read-outs that look alike come from different tables or passages of the source.
